# Assay results as given in article PMC4336329 (PLoS ONE, 2015).
# In all, about 310,000 compounds went through this assay and about 2,200 (0.71%) showed an effect of 50% or more. Effects have a minus sign here. The list shows a part of the results.
# Biological target: human ether-à-go-go-related gene (hERG) potassium channel (human, UniProt Q12809)
# Assay: primary screen, population patch clamp on CHO cells stably expressing hERG
# human ether-à-go-go-related gene (hERG) potassium channel, sequence (Q12809 whole entry, looked up): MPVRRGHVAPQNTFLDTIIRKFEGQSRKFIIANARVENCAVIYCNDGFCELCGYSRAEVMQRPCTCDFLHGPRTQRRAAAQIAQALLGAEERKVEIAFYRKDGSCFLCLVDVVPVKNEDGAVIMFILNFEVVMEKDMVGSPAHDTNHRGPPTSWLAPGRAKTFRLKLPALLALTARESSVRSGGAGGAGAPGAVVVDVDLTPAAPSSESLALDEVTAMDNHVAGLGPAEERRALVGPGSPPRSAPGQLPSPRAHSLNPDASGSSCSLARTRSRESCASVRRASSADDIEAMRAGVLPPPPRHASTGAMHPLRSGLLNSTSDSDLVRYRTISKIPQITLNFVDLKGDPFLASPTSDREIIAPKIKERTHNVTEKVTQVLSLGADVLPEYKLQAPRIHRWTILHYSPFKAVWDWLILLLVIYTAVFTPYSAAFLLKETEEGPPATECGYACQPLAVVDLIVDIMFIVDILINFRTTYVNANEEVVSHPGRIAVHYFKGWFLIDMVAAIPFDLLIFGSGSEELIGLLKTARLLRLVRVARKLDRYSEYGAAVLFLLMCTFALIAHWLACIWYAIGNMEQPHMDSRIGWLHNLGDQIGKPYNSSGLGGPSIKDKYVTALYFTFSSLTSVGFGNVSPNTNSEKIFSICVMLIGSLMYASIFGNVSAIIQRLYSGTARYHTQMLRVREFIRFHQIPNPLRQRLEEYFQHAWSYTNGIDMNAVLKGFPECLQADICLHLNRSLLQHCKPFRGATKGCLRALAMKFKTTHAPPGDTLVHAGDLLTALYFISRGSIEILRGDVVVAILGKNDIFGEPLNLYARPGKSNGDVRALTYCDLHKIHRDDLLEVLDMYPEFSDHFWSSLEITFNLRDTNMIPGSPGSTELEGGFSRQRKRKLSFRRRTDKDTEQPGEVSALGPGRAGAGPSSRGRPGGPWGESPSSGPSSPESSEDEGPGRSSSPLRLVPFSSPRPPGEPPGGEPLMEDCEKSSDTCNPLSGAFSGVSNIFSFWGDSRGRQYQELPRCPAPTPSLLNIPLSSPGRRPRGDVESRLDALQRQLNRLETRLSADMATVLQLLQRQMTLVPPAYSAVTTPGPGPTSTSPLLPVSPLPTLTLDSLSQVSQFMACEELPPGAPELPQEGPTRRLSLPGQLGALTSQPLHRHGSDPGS
row,SMILES,"hERG current change (%, negative = inhibition) at 1uM"
1,O=C(NCC1CCCO1)C1CCN(C2CCN(C(=O)CC3CCCC3)CC2)CC1 (centres unmarked),9.16%
2,O=[N+]([O-])c1cc(C(F)(F)F)cc([N+](=O)[O-])c1NCCNC(=S)Nc1ccc(Cl)c(Cl)c1,5.85%
3,Cc1cc(NC(=O)c2ccco2)sc1C,4.07%
4,O=C(NCCCN1CCN(Cc2ccccc2)CC1)C1CCN(S(=O)(=O)N2CCCC2)CC1,6.3%
5,CCN1C(=O)C(C(=O)c2ccccc2)SC1=S (centres unmarked),11.7%
6,Cc1ccc(S(=O)(=O)N2[C@@H](c3cccc(Cl)c3)C(C(=O)O)=CC[C@H]2c2ccc(C(C)C)cc2)cc1,5.85%
7,O=C(CSc1nnc(-c2ccco2)c(-c2ccco2)n1)c1ccccc1,14.2%
8,Cc1ccn2c(=O)c(C(=O)NCCCN3CCCCC3C)c(O)nc2c1 (centres unmarked),18.4%
9,BrC(=C\c1ccccc1)/C=N/N1CCN(Cc2ccccc2)CC1,13.8%
10,O=C(NCCS(=O)(=O)NCCc1ccccc1)c1ccc2c(c1)OCO2,7.91%
11,Cn1c(NCCCO)nc2ccccc21,10.1%
12,COc1ccc(NC(=O)Nc2nnc(-c3ccco3)s2)cc1,12.3%
13,Cc1cc(C)nc(N/N=C/c2cccc(Cl)c2)n1,0.762%
14,COc1ccc(S(=O)(=O)N2CCOCC2)cc1NC(=O)CSc1ccc(F)cc1,-8.57%
15,O=C(Cn1cnc2ccccc2c1=O)N1CCN(S(=O)(=O)c2ccc(F)cc2)CC1,5.18%
16,CCOc1ccc(NC(=O)C(C)C(Cc2ccc(C)cc2)C(=O)O)cc1 (centres unmarked),12.1%
17,O=C(O)C1CC=C(Cl)CC1C(=O)NCC1OCCc2ccccc21 (centres unmarked),13.2%
18,O=C(CSc1ncnc2sccc12)NCc1ccc2c(c1)OCO2,2.16%
19,CCCc1nn2c(=O)cc(CSCC(=O)Nc3ccccc3)nc2s1,28.4%

row,SMILES,"hERG current change (%, negative = inhibition) at 1uM"
1,O=C(OCC(=O)N1CCCc2ccccc21)c1ccc(S(=O)(=O)C(F)F)cc1,18.2%
2,Cc1ccccc1OCCC(=O)OCC(=O)NCCc1ccccc1,2.84%
3,CCOc1cccc(NC(=O)c2cccc(F)c2)c1,14.4%
4,COc1ccc(/C=C2\C(=O)ON=C2c2cccc([N+](=O)[O-])c2)cc1,10%
5,COc1ccccc1CN(C)C(=O)c1cc(-c2cc(OC)c(OC)c(OC)c2)nc2ccccc12,15%
6,CCSc1nnc(NC(=O)C2CC(=O)N(Cc3ccc(C)cc3)C2)s1 (centres unmarked),3.25%
7,Cc1ccccc1C(=O)NC(CC(C)C)C(=O)Nc1cccc(S(=O)(=O)N(C)C)c1 (centres unmarked),12.5%
8,O=C1C=C(OCc2ccccc2)CN1,9.1%
9,O=c1c2ccccc2oc2ccc(NCCCn3ccnc3)cc12,15.5%
10,CC(C)(C)NC(=O)COc1ccc(CNn2nnnc2N)cc1,15.2%
11,COc1ccc(-n2nc3c(c2NC(=O)CCl)CSC3)cc1,13.1%
12,Cc1ccccc1N(CC(=O)NCC1CCCO1)C(=O)C1(C)CC(=O)N=C2C=CC=CN21 (centres unmarked),7.3%
13,Cn1c(-c2ccc3c(c2)OCO3)cnc1NCc1cccc(Cl)c1.O=C(O)C(=O)O,-18.3%
14,NC(=O)Cn1c(=O)n(Cc2ccco2)c(=O)c2c3c(sc21)CCCCC3,12.3%
15,C=CCNC(=S)NNC(=O)c1ccccc1OCC,8.88%
16,COc1ccccc1C(=O)NCc1nnc(SCC(=O)Nc2nccs2)n1C,13.7%
17,CC(C)N=c1c([N+](=O)[O-])nn(C)n1O,-21.3%
18,COc1cc(NC(=O)c2cc3ccccc3o2)ccc1NC(=O)c1ccco1,0.419%
19,CCOC(=O)C1(CC2CCCCO2)CCN(C2CCSCC2)CC1 (centres unmarked),-5.25%

row,SMILES,"hERG current change (%, negative = inhibition) at 1uM"
1,Cc1nn(-c2ccccn2)c2c1C(=O)CC(C)(C)C2Br (centres unmarked),3.12%
2,Cc1ccc(C(CC(=O)O)Nc2nc(N3CCOCC3)nc(N3CCOCC3)n2)cc1 (centres unmarked),5.93%
3,CCCCC(=O)OCC(=O)Nc1cccc(S(=O)(=O)NC2=NCCCCC2)c1,11.1%
4,CC1CCc2c(sc(NC(=O)c3ccc(N4C(=O)CCC4=O)cc3)c2C(N)=O)C1 (centres unmarked),3.09%
5,O=C(/C=C/c1ccc2c(c1)OCCCO2)c1ccccc1O,7.78%
6,Clc1ccc(-c2nnc(-c3ccc(Br)cc3)c(N3CCSCC3)n2)cc1,5.94%
7,CCOC(=O)C1=C(O)/C(=C/c2ccc(OCC(=O)O)c(OCC)c2)SC1=Nc1ccccc1,12.9%
8,COc1cc(-c2nc3cnccn3c2Nc2c(C)cccc2C)ccc1O,11.3%
9,CC(=O)Oc1cccc(N2C(=O)c3ccc(C(=O)Nc4cccnc4)cc3C2=O)c1,9.97%
10,CCCSc1nsc(NC(=O)C(c2ccccc2)c2ccccc2)n1,17.3%
11,COc1ccccc1N1CCN(C(=O)c2nn(C)c3c2CS(=O)(=O)c2ccccc2-3)CC1,13.2%
12,O=C(COC(=O)c1cc(=O)[nH]c2ccccc12)NCc1cccc(Cl)c1,-4.5%
13,COc1ccc(OC)c(NC(=O)CSc2nc(N3CCOCC3)nc(N3CCOCC3)n2)c1,0.455%
14,CSc1ccccc1NC(=O)CN(C)C(=O)CNc1ccc(C(F)(F)F)cc1[N+](=O)[O-],8.68%
15,O=C(COc1ccc(F)cc1Cl)Nc1ccc(S(=O)(=O)Nc2nccs2)cc1,5.21%
16,[O-][n+]1cccc2c(Br)cc(Br)c(O)c21,-1.06%
17,COc1cccc2c1OCC1COc3c(c(=O)n(C)c(=O)n3C)C21 (centres unmarked),6.39%
18,Cc1cc(C(=O)CSc2n[nH]c(N)n2)c(C)n1-c1ccc2c(c1)OCO2,-1.2%
